Test results published in patent publication US20220289848A1 (published 2022).

B1: sdAb-PDL1c-IgG4PE (Fc fusion)
chain: EVQLVESGGGLVQPGGSLRLSCAASGRTFITYAIGWFRQAPGKGREFVSAISWSGSMTSYADSVKGRFTISRDNAKNTLYLQMNSLRPEDTAVYYCAAHRGAIAPIAQSVYTNWGQGTLVTVSS[omitted - human IgG4 Fc with changes]
B2: sdAb-PDL1b-IgG4PE (Fc fusion)
chain: EVQLVESGGGLVQPGGSLRLSCAASGRTFVTYGMGWFRQAPGKGREFVSAISWSGSSTSYGDSVKGRFTISRDNAKNTLYLQMNSLRPEDTAVYYCAAALGAVVYTTREPYTYWGQGTLVTVSS[omitted - human IgG4 Fc with changes]
B3: sdAb-PDL1a-IgG4PE (Fc fusion)
chain: EVQLVESGGGLVQPGGSLRLSCAASGRTFVTYGMGWFRQAPGKGREFVSAISWSGSMTSYGDSVKGRFTISRDNAKNTLYLQMNSLRPEDTAVYYCAAALGAVVYTTREPYTYWGQGTLVTVSS[omitted - human IgG4 Fc with changes]

Each binder was assayed against PD-L1 expressed on CHO-K1 cells (UniProt Q9NZQ7) (assay: FACS binding, CHO-K1 cells expressing PD-L1).
UniProt Q9NZQ7, sequence (Q9NZQ7 19-290): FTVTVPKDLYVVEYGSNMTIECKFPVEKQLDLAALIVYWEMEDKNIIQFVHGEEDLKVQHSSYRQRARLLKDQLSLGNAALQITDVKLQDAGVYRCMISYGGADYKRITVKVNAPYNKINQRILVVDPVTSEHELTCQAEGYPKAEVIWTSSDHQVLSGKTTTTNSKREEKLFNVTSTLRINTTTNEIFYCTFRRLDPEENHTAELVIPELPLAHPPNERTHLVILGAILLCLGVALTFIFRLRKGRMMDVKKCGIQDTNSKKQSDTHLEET

| EC50 [nM] | Binder |
| --- | --- |
| 1.82 | B1 |
| 2.22 | B2 |
| 2.58 | B3 |

Each binder was assayed against CD47 expressed on CHO-K1 cells (UniProt Q08722) (assay: FACS binding, CHO-K1 cells expressing CD47; flat curve).

| EC50 [nM] | Binder |
| --- | --- |
| ~9.57 | B1 |
| ~498 | B2 |
| ~9.77 | B3 |
